Results are given in words; binding and its absence hold for the method and conditions named. Binding seen in cells or lysates may run through a third protein. Some results given as binding are weak or reduced against the parent protein; the word gives no strength. Where a sequence is shown, tags or fusion partners need not be part of it.
Molecular target: CENP-Q-mCherry (human) (UniProt Q7L2Z9)
Assay: FRET or BRET; acceptor photo-bleaching FRET, EGFP donor and mCherry acceptor, at kinetochores of living co-transfected HEp-2 cells in interphase

By UniProt entry, the sequences of proteins in these tests, tags left out.
UniProt Q7L2Z9: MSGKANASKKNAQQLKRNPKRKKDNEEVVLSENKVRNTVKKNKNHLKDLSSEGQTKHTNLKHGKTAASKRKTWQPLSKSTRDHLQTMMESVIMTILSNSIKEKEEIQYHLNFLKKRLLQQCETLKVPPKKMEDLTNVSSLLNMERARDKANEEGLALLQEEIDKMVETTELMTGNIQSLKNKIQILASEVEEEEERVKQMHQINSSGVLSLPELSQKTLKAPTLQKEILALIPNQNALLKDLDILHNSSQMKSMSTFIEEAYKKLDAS

binding: binds
B1: EGFP-CENP-B (protein, UniProt P07199 1-599)
chain: MGPKRRQLTFREKSRIIQEVEENPDLRKGEIARRFNIPPSTLSTILKNKRAILASERKYGVASTCRKTNKLSPYDKLEGLLIAWFQQIRAAGLPVKGIILKEKALRIAEELGMDDFTASNGWLDRFRRRHGVVSCSGVARARARNAAPRTPAAPASPAAVPSEGSGGSTTGWRAREEQPPSVAEGYASQDVFSATETSLWYDFLPDQAAGLCGGDGRPRQATQRLSVLLCANADGSEKLPPLVAGKSAKPRAGQAGLPCDYTANSKGGVTTQALAKYLKALDTRMAAESRRVLLLAGRLAAQSLDTSGLRHVQLAFFPPGTVHPLERGVVQQVKGHYRQAMLLKAMAALEGQDPSGLQLGLTEALHFVAAAWQAVEPSDIAACFREAGFGGGPNATITTSLKSEGEEEEEEEEEEEEEEGEGEEEEEEGEEEEEEGGEGEELGEEEEVEEEGDVDSDEEEEEDEESSSEGLEAEDWAQGVVEAGGSFGAYGAQEEAQCPTLHFLEGGEDSDSDSEEEDDEEEDDEDEDDDDDEEDGDEVPVPSFGEAMAYFAMVKRYLTSFPIDDRVQSHILHLEHDLVHVTRKNHARQAGVRGLGHQS
